# Source: the supplement of paper PMC9446081
# In all, about 39,000 compounds went through this assay and about 220 (0.56%) showed activity. The list shows a part of the results.
# Test system: Escherichia coli K-12 BW25113
# Experiment: relative growth (OD600 normalised to plate interquartile mean) (fraction); higher = less growth inhibition, active = 0.2 or less
# Conditions: 50 µM; LB; incubation time: overnight (16-24 h)
# 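Further: static incubation at 37 °C against the wild-type strain, values averaged over two biological replicates.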
row,Structure (SMILES),relative growth
1,C[C@H]1CN([C@@H](C)CO)C(=O)c2cc(NS(=O)(=O)c3ccccc3)ccc2O[C@@H]1CN(C)Cc1ccc(-c2ccccc2)cc1,inactive: 0.96
2,C=CCOC(=O)[C@@H]1[C@H]2C(=O)O[C@H](c3ccccc3)[C@H](c3ccccc3)N2[C@H](c2ccc(OCCOC(=O)[C@H]3C[C@H]4C(=O)N[C@@H](CCCCNC(C)=O)C(=O)N4[C@H]3c3ccc(O)cc3)cc2)[C@@]12C(=O)Nc1ccc(I)cc12,inactive: 1.07
3,COCC#Cc1cnc2c(c1)C(=O)N([C@@H](C)CO)C[C@H](C)[C@H](CN(C)C(=O)Nc1cc(F)ccc1F)O2,inactive: 0.996
4,C[C@H]1CN([C@@H](C)CO)C(=O)c2cc(NS(=O)(=O)c3ccc(Cl)cc3)ccc2O[C@@H]1CN(C)C(=O)Nc1ccc(C(F)(F)F)cc1,inactive: 0.991
5,C[C@H]1CN([C@@H](C)CO)C(=O)Cc2cc(NC(=O)Cn3cnnn3)ccc2O[C@H]1CN(C)C(=O)Nc1ccccc1,inactive: 0.985
6,C[C@@H]1CN([C@@H](C)CO)C(=O)c2cc(NC(=O)NC3CCCCC3)ccc2O[C@@H](C)CCCCO[C@H]1CN(C)S(=O)(=O)c1cccs1,inactive: 1.02
7,O=C1O[C@H](c2ccccc2)[C@H](c2ccccc2)N2[C@H]1[C@@H](C(=O)N1CCCCCCC1)[C@]1(C(=O)Nc3ccc(C#CC4=CCCCC4)cc31)[C@H]2c1ccc(O)cc1,inactive: 1.03
8,C[C@H](CO)N1C[C@H](C)[C@H](CN(C)Cc2ccc(C(F)(F)F)cc2)OCc2ccccc2-c2ccccc2C1=O,inactive: 0.99
9,Cc1ccc(S(=O)(=O)Nc2ccc3c(c2)C(=O)N([C@H](C)CO)C[C@H](C)[C@@H](CN(C)C(=O)C2CCCCC2)OCCCC[C@@H](C)O3)cc1,inactive: 1.02
10,C[C@H]1CCCCO[C@@H](CN(C)S(=O)(=O)c2ccc(F)cc2)[C@@H](C)CN([C@@H](C)CO)C(=O)c2cc(NC(=O)NC3CCCCC3)ccc2O1,inactive: 1.01
11,C[C@H](CO)N1C[C@H](C)[C@@H](CN(C)S(=O)(=O)c2cn(C)cn2)OCc2cnnn2CCCC1=O,inactive: 0.998
12,C[C@H]1CN([C@@H](C)CO)C(=O)Cc2cc(NS(=O)(=O)c3ccccc3)ccc2O[C@H]1CN(C)S(=O)(=O)c1ccccc1,inactive: 1.02
13,COc1ccc(NC(=O)N(C)C[C@@H]2OCCCC[C@@H](C)Oc3ccc(NC(=O)NC4CCCCC4)cc3C(=O)N([C@@H](C)CO)C[C@@H]2C)cc1,inactive: 1
14,C[C@@H]1CN([C@H](C)CO)C(=O)c2cc(NC(=O)Nc3cccc4ccccc34)ccc2O[C@H]1CN(C)C(=O)Nc1ccc(F)cc1,inactive: 1.01
15,CC(C)NC(=O)Nc1ccc2c(c1)CC(=O)N([C@H](C)CO)C[C@@H](C)[C@@H](CN(C)C(=O)Nc1ccc3c(c1)OCO3)O2,inactive: 0.98
16,O=C(C[C@@H]1CC[C@@H]2[C@H](COC[C@@H](O)CN2S(=O)(=O)c2cccc(F)c2)O1)NCCCN1CCOCC1,inactive: 0.996
17,CN(C)Cc1cn(CC[C@@H]2CC[C@H](N)[C@H](CO)O2)nn1,inactive: 0.991
18,CNC[C@@H]1OCCCC[C@H](C)Oc2ccc(NC(=O)Nc3ccc(C(F)(F)F)cc3)cc2C(=O)N([C@H](C)CO)C[C@@H]1C,inactive: 0.832
19,C[C@H]1CN([C@@H](C)CO)C(=O)c2cc(NC(=O)Cn3cnnn3)ccc2O[C@H]1CN(C)Cc1ccc(C(=O)Nc2ccccc2N)cc1,inactive: 1
20,C[C@@H]1CN([C@@H](C)CO)C(=O)c2cc(NC(=O)Nc3ccc(C(F)(F)F)cc3)ccc2O[C@@H]1CN(C)C(=O)Nc1ccc(F)cc1,inactive: 1.01
21,C[C@H]1CN([C@@H](C)CO)C(=O)c2cccc(NS(=O)(=O)c3cccs3)c2O[C@H]1CN(C)Cc1ccc(Cl)c(Cl)c1,inactive: 1.01
22,C[C@@H]1CCCCO[C@@H](CN(C)C(=O)Nc2ccc(F)cc2)[C@@H](C)CN([C@H](C)CO)C(=O)c2cc(NC(=O)Cc3ccccc3)ccc2O1,inactive: 0.996
23,C[C@@H]1CN([C@H](C)CO)C(=O)c2cccc(NC(=O)c3ccno3)c2O[C@H]1CN(C)S(=O)(=O)c1cccs1,inactive: 0.991
24,C[C@@H]1CN([C@@H](C)CO)C(=O)c2cc(NC(=O)CCCN(C)C)ccc2O[C@@H](C)CCCCO[C@@H]1CN(C)S(C)(=O)=O,inactive: 1.03
25,Cc1noc(C)c1S(=O)(=O)Nc1ccc2c(c1)C(=O)N([C@H](C)CO)C[C@@H](C)[C@@H](CN(C)Cc1ccccc1)OCCCC[C@@H](C)O2,inactive: 1.01
26,Cc1noc(C)c1S(=O)(=O)N(C)C[C@H]1Oc2ccc(NS(=O)(=O)c3ccc(Cl)cc3)cc2CC(=O)N([C@@H](C)CO)C[C@@H]1C,inactive: 0.954
27,O=C(CCCCCC(=O)N/N=C/[C@@H](O)[C@@H](O)[C@H](O)[C@H](O)CO)NO,inactive: 0.971
28,[N-]=[N+]=NCCOCCNC(=O)CCCOc1ccc(CS(=O)c2nnc(-c3ccc(F)cc3)o2)nc1 (stereo not given),inactive: 0.95

row,Structure (SMILES),relative growth
1,C[C@@H]1CCCCO[C@@H](CN(C)CC2CC2)[C@@H](C)CN([C@H](C)CO)C(=O)c2cc(NC(=O)Nc3ccc(C(F)(F)F)cc3)ccc2O1,inactive: 0.968
2,CCS(=O)(=O)Nc1ccc2c(c1)C(=O)N(C)C[C@H](OC)[C@@H](C)CN(CCC(F)(F)F)[C@H](C)CO2,inactive: 0.991
3,O=C(O)C[C@H]1NC(=O)c2ccccc21,inactive: 1.02
4,C[C@H](CO)N1C[C@H](C)[C@@H](CN(C)S(=O)(=O)c2cccs2)Oc2ccc(NS(=O)(=O)c3cccs3)cc2CC1=O,inactive: 1.04
5,CCNC(=O)C[C@H]1CC[C@H](NC(=O)C2CCOCC2)[C@H](CO)O1,inactive: 0.988
6,C[C@@H]1CN([C@H](C)CO)C(=O)c2cc(NS(=O)(=O)c3ccc(Cl)cc3)ccc2O[C@H]1CN(C)C(=O)Nc1cccc2ccccc12,inactive: 0.991
7,Cc1cc(C)n(-c2n[nH]c(=S)n2N)n1,inactive: 1
8,Nc1ncnc2c1ncn2[C@@H]1O[C@@H]2CO[P@@](=O)(S)O[C@@H]3[C@H](O)[C@@H](CO[P@@](=O)(S)O[C@H]2[C@H]1O)O[C@H]3n1cnc2c(N)ncnc21,inactive: 1.04
9,C[C@@H]1CCCCO[C@H](CN(C)C(=O)Nc2ccc(F)cc2)[C@H](C)CN([C@@H](C)CO)C(=O)c2cc(NC(=O)C3CCCCC3)ccc2O1,inactive: 1
10,C[C@@H]1CCCCO[C@H](CN(C)S(C)(=O)=O)[C@H](C)CN([C@@H](C)CO)C(=O)c2cc(NC(=O)CCCN(C)C)ccc2O1,inactive: 1
11,C[C@@H]1CCCCO[C@H](CN(C)C(=O)Nc2ccc3c(c2)OCO3)[C@H](C)CN([C@H](C)CO)C(=O)c2cc(NC(=O)CCC(F)(F)F)ccc2O1,inactive: 1
12,CN(C)C(=O)CN1CCC2(CC1)CN(c1cncnc1)C(=O)CO2,inactive: 1.01
13,COc1ccc(S(=O)(=O)N(C)C[C@H]2Oc3ccc(NC(=O)Nc4cccc5ccccc45)cc3C(=O)N([C@@H](C)CO)C[C@@H]2C)cc1,inactive: 1.01
14,CCCNC(=O)N1CC[C@]2(CC1)CN([C@H](CO)c1[nH]c3cc(ccc3c12)OC)C(=O)CN1CCOCC1,inactive: 0.884
15,C[C@@H]1CCCCO[C@@H](CN(C)C(=O)CCC(F)(F)F)[C@H](C)CN([C@H](C)CO)C(=O)c2cc(NS(=O)(=O)c3ccc(F)cc3)ccc2O1,inactive: 1.01
16,CCCNC(=O)c1cc2c(c(-c3cccc(-c4cccc(F)c4)c3)n1)[C@@H](CCO)N([S@](=O)C(C)(C)C)C2,inactive: 0.964
17,Cc1ccc(S(=O)(=O)Nc2ccc3c(c2)C(=O)N([C@H](C)CO)C[C@H](C)[C@H](CN(C)C(=O)Nc2ccc(F)cc2)OCCCC[C@@H](C)O3)cc1,inactive: 1.03
18,C[C@@H](CCO)Nc1nc2c([nH]1)c(=O)n(C)c(=O)n2C,inactive: 1.02
19,C[C@@H]1CN([C@@H](C)CO)C(=O)c2cc(NS(=O)(=O)c3ccc(Cl)cc3)ccc2O[C@@H](C)CCCCO[C@H]1CN(C)C(=O)CCC(F)(F)F,inactive: 0.98
20,COc1ccc(S(=O)(=O)Nc2ccc3c(c2)C(=O)N([C@H](C)CO)C[C@@H](C)[C@@H](CN(C)C(=O)NC2CCCCC2)OCCCC[C@H](C)O3)cc1,inactive: 0.986
21,COC(=O)C(CC#Cc1ccc2c(c1)[C@]1(C(=O)N2)[C@H](c2ccc(O)cc2)N2[C@H](c3ccccc3)[C@H](c3ccccc3)OC(=O)[C@H]2[C@@H]1C(=O)N1CCCCCCC1)C(=O)OC,inactive: 1.04
22,C[C@@H]1CN([C@H](C)CO)C(=O)c2cc(NC(=O)c3ccncc3)ccc2O[C@@H]1CN(C)C(=O)Nc1ccc2c(c1)OCO2,inactive: 0.978
23,Cc1cccc(S(=O)(=O)N2C[C@H](O)COC[C@H]3O[C@@H](CC(=O)NCCCN4CCOCC4)CC[C@@H]32)c1,inactive: 1
24,C[C@@H]1CN([C@@H](C)CO)C(=O)c2cccc(NC(=O)c3ccncc3)c2O[C@@H]1CN(C)S(=O)(=O)c1ccc(F)cc1,inactive: 0.998
25,C[C@H]1CCCCO[C@@H](CN(C)C(=O)Nc2cccc3ccccc23)[C@@H](C)CN([C@@H](C)CO)C(=O)c2cc(NC(=O)C3CCCCC3)ccc2O1,inactive: 1.03
26,Cc1nc(=O)c(C#N)c(NCc2cccnc2)[nH]1,inactive: 0.989
27,COCCOC(=O)N1C(=O)[C@@]2(c3cc(C#CCNC(N)=O)ccc31)[C@H](C(=O)N1CCCCCCC1)[C@H]1C(=O)O[C@H](c3ccccc3)[C@H](c3ccccc3)N1[C@@H]2c1ccccc1OCCO,inactive: 1.02
